# Experimental data taken from the supplement of paper PMC11417369.
# ± gives the standard deviation of the averaged measurements. The list shows a part of the results.
# Tested on: PfAP2-I AP2 domain 3 (GST-tagged)
# Assay: gcPBM binding intensity (ln(normalized median fluorescence intensity)); higher = stronger DNA binding
# Outline: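 Using an Agilent 4 × 180k array, primer-extended double-stranded 36-bp intergenic genomic probes and negative controls were exposed for 1 h to GST-fused P. falciparum DNA-binding domains expressed in E. coli. Binding was carried out in 1× PBS with 1% milk, 0.2 mg/ml BSA, 0.5% salmon testes DNA and 0.03% Triton X-100, and protein was detected with Alexa488 anti-GST antibody and a 488 nm scan. Binding intensity is the highest Masliner-normalised natural-log median intensity across replicate spots of either probe orientation.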
row,Sequence,gcPBM binding intensity (ln)
1,TCTTCATAAAAATAAAGTACATTATATATATAAATA [XGTACX_site3775],7.51 ± 0.4
2,TTGTATATATATGGAAAAATATATATATATATATAT [GTGCAC_negctrl_site591],9.47 ± 0.74
3,TTTATTTATAGACACACACACAAAAAAAAAAAAAAA [CACACA_site7280],8.15 ± 0.7
4,TTTTTTTTTTTTTTTATAAAAGATAATTTTTTTTTA [CACACA_negctrl_site133],8.08 ± 0.49
5,CATTTATATTATAAATGTACAAAGTTCGTTTGTTCC [XGTACX_site1305],7.57 ± 0.61
6,TATAAATTTAAAATGACACACACTAATATTATTTAA [CACACA_site8334],7.62 ± 0.6
7,TGTCTTTAAATTTCTCAACACACAGTTATAAAAAAT [CACACA_site8930],7.81 ± 0.44
8,ATACGATTGAAACATTGTACATGAATATAAAAAAAT [XGTACX_site5704],7.92 ± 0.57
9,AGTATAATAATATTTACACACGCATATGTTATATAT [CACACA_site1476],8.15 ± 0.83
10,AAAACGCTACATAATTGTACATGTAGAAATAAAAGC [XGTACX_site2895],8.24 ± 0.47
11,TCTAAAAATAAGAACACACACATATAAGCATATAAA [CACACA_site2274],7.72 ± 0.61
12,TACTGCCTTCCATACCCACACACTTCCCATATATTT [CACACA_site2705],8.44 ± 0.69
13,ATTTAAAAAAAAAAAACACACATGTGAATAGAAAAG [CACACA_site3323],7.84 ± 0.69
14,AAAAATTTGGCATACACACACACACCCACACCCACA [CACACA_site587],8.27 ± 0.085
15,TATGTATTTAAATTAACACACATATGTGGTTAATAG [CACACA_site5697],7.76 ± 0.43
16,ATATATTATATATATTGTACATGTAAAATTTTAAAA [XGTACX_site7197],7.92 ± 0.2
17,ACATATATATATATATATATATATATATCATTATGT [CACACA_negctrl_site724],8.5 ± 0.23
18,ACTCTTGATCTGAATGCACACAATAAATTATATAAA [CACACA_site1438],9.56 ± 0.22
19,GATATTCATAGAAACACACATACAAATTATGTATAT [CACACA_site144],7.49 ± 0.54
20,TTGCCCATTTAATTAACACACAAATATTTATATTCT [CACACA_site738],8.21 ± 0.51
21,GTTAAATAATATATATGTACATACATAAGTGTTACT [XGTACX_site4778],7.85 ± 0.44
22,ATTTCCTTTTGTTTCAGTACATAATTTTTTTTTTTT [XGTACX_site4842],7.88 ± 0.62

row,Sequence,gcPBM binding intensity (ln)
1,TTTTTAAAGTTTTATACACACACCAAAATTATTCTA [CACACA_site600],7.79 ± 0.42
2,TAATTGTACGCCAATACACACAGAATTAAAATGTAG [CACACA_site4234],8.15 ± 0.24
3,TATGTGCACCCATGTACATGCGGACATATGTTATAT [TGCATGCA_site383],11 ± 0.9
4,ATGGCCACTGTGAAATGTACAAAAAAAAAATACAAT [XGTACX_site2874],7.87 ± 0.63
5,TATGTATATATATATATATATATATATATATATATA [TGCATGCA_negctrl_site491],9.12 ± 0.52
6,AGTAGTCTGGAGAAAAGTACATAGTATCTGGTAACC [XGTACX_site2024],7.8 ± 0.63
7,TTTTACAATAATAAGTAGATCTAAATAAAGATTTAA [GTGCAC_negctrl_site547],7.34 ± 0.51
8,CATACAAATTAATATGTACACACAAATATATATATA [CACACA_site8605],9.15 ± 0.38
9,AAAAAAAAAAAATAATGTACATATGTATTTGAGAAA [XGTACX_site3572],7.66 ± 0.4
10,TTCCAAAATTGCACATGTACAAAATTCTCCAATATG [XGTACX_site3419],8.54 ± 0.33
11,TTTATATTATTTAATGAGAAATAATTATAAACAATT [TGCATGCA_negctrl_site65],7.57 ± 0.69
12,TTTTTTTTTTTTTTTTGTACATATTTTAATTTGTTT [XGTACX_site6297],7.75 ± 0.26
13,AAATCAACGATCTATACATGCATATAATATATACAT [TGCATGCA_site25],7.42 ± 0.6
14,TAATAATACCCTTGCTGTACCAAATAAAGTTGAATA [XGTACX_site6922],7.83 ± 0.47
15,GTAGCAATAAACATATGTACATATATATATTTTTTC [XGTACX_site5814],7.92 ± 0.45
16,ATTAAAAAGACAAAAAAAAAATTTTTTTTTTTTTTT [CACACA_negctrl_site1027],8.21 ± 0.74
17,TTTCATAACAAAAAAGTGCAAAATAGCACGAACATT [GTGCAC_site9703],10.66 ± 0.049
18,AGAAAAAGGAGAAAAAGTACAAAACGGAGTAGTATT [XGTACX_site3858],7.98 ± 0.96
19,AAAAATTATATACATCATAGAATTAACATTTTAAAT [GTGCAC_negctrl_site369],7.29 ± 0.53
20,AAAAAAAAAAAGTTTACACACATTAATTTTACATAT [CACACA_site834],7.42 ± 0.54
21,AAAAAAATACCATTCACACATATTCTTTTATTATTT [CACACA_site5113],7.68 ± 0.54
22,ATAAATATAATAATCATACACACCAAAGAGAATATT [CACACA_site1888],7.82 ± 0.55

row,Sequence,gcPBM binding intensity (ln)
1,AAAGTTATTATGCAATAATTATGATAATTAATATAT [TGCATGCA_negctrl_site316],7.99 ± 0.44
2,ATGACTTACATATATAGTACTTTGTTTTGGAGTTGC [XGTACX_site94],7.58 ± 0.59
3,TATGAGGAAACGTGGTGTACTTTTTTTTAATAAAAA [XGTACX_site1351],8.3 ± 0.092
4,CATATAAAAATATATGCACACAAATAAAAAATTATA [CACACA_site9210],8.94 ± 0.39
5,ATATTTAAATAATATTCACACACAAAATTATATTTT [CACACA_site7955],7.66 ± 0.57
6,ATTTCTCAATCGTAATGTACAAAAAAAAGGGAAAAG [XGTACX_site2781],7.9 ± 0.58
7,ACAAACAAAGAAAGAACACACATACACAATATACCT [CACACA_site5566],7.97 ± 0.59
8,ACATATATATATATATATATATATATATAATATTTA [CACACA_negctrl_site633],8.38 ± 0.42
9,ATTATGCTACAAGGAGAACACACAATTGCCACTTTT [CACACA_site8673],8.28 ± 0.64
10,TTTTTTTTGTGGTGTCGTACATATGTTTGTTTTAAG [XGTACX_site1759],8.11 ± 0.45
11,CCACGAGAATATATAGTGCATAATAATTTTTTTTTG,11.1 ± 0.4
12,GGTGATAATAAGCATACACACACACCCAAAAAAAAA [CACACA_site8137],8.05 ± 0.34
13,AAAAAAAAAAAGAAAGCACACAATACATATGTATAA [CACACA_site1137],7.93 ± 0.3
14,TAAATTTTTAAATACACACATACACCCATACAGACA [CACACA_site548],8.52 ± 0.071
15,ATATATATCAGACACACACACATGTTTTAAAACTAT [CACACA_site77],8.24 ± 0.56
16,TTATTTTAATAACCTACACACATTTTGTATATTTTA [CACACA_site4000],7.71 ± 0.4
17,TTATAAATATTCTTGGGTACTTAAGATGATATGTAA [XGTACX_site5496],7.67 ± 0.38
18,AAATGATGGAAAAAATAAATTTTTGTACAAAAATTA [CACACA_negctrl_site814],7.58 ± 0.5
19,ATATATATATTATTTCGTACATAATTATTTGCCTTA [XGTACX_site350],9.13 ± 0.21
20,TGATACTTTTTTTGTAGTACTCCTAAAATTATAAAA [XGTACX_site4340],7.75 ± 0.41
21,TTTTTTTTATTTTAATGTACATTTTTTATTTGTTAT [XGTACX_site7189],7.85 ± 0.47
22,TAATAAAATATGTACGTGCACATAATTATACTAAAA,10.3 ± 0.18

row,Sequence,gcPBM binding intensity (ln)
1,AAAAAAAAAAAAGAAACACACATATTTATATTTATA [CACACA_site6213],7.5 ± 0.25
2,AAAAAAAAAAAAAATTGTACAAAAAAAATAAATAAA [XGTACX_site6816],7.8 ± 0.26
3,TTTTTCTATAAAAAAAAAAAAAAAAAATATATATAT [TGCATGCA_negctrl_site535],9.01 ± 0.12
4,TTGTATATTTTATGTACACACAATAAGTTAATATAA [CACACA_site4655],8.12 ± 0.22
5,AAAATAATGTATATATGTACATATAAATATATATAT [XGTACX_site8081],8.88 ± 0.014
6,ATAAAAGGAAGAAAATGTACATATAATTATATGCAT [XGTACX_site8421],7.93 ± 0.3
7,TATTATTGCATATTTACACACGTACTAATTTAAACA [CACACA_site970],8.91 ± 0.42
8,TGTATACTATTAAATTGTACACATAAGAAATATTAT [XGTACX_site5839],8.01 ± 0.26
9,TTTTACAAATATAATGGGTGAGCTATCAAAATAAAT [GTGCAC_negctrl_site91],7.78 ± 0.7
10,ATGTTTTTAAAAAATTGTACATAATATTTTTTATAA [XGTACX_site7692],7.89 ± 0.38
11,TATATATATATATATATAATACGAATTTGTAGTACA [TGCATGCA_negctrl_site224],9.49 ± 0.56
12,ATATTAATTCGTTTTGTACACACATAATGAATAATT [CACACA_site8701],7.71 ± 0.4
13,ATAAAAATCATGTTGGTGCGAAATTTTATTATCAGA [GTGCAC_site9735],8.93 ± 0.18
14,AATTATTTACCCTATACACACAAAACAGACTAAAAA [CACACA_site6688],8.04 ± 0.54
15,TTATGTATAAACACACGTACACACACTAAGTATATC [XGTACX_site3254],8.04 ± 0.38
16,AAGGTATGATTAATCACACACATAAATATATATACA [CACACA_site2658],7.84 ± 0.51
17,TTTAAAAAGATATATACACACATATAAATAAATATA [CACACA_site6436],7.65 ± 0.52
18,ATTATATTTTTAAGTACACACATATATATATATATA [CACACA_site5925],9.36 ± 0.28
19,AGCCTCGGGGTCATATATATATATATATATATATAT [CACACA_negctrl_site512],9.39 ± 0.59
20,CCACGTATAATATGTACACACACATATATACAAAAA [CACACA_site8208],8.1 ± 0.16
21,AATATATATACTTTTTTTTTTTTTTTTTTTTTTTTT [CACACA_negctrl_site520],9.745 ± 0.064
22,TTTAGCACAAACAAAAAAAAAATAGAAAAAAATATA [CACACA_negctrl_site1772],7.59 ± 0.61
